Assay results: PubChem BioAssay AID1030 (National Center for Advancing Translational Sciences (NCATS), 2008)
About 16,000 (7.3%) of roughly 220,000 compounds were called active. Inconclusive results, whose numbers are uncertain, are shown with a selection of clear calls. Calls come from the whole dose curve; as a rule, active = well fitted inhibition curve with a large enough effect (not every such curve was filed as active); inconclusive = small, poorly fitted or top-dose-only effect, or another doubt; inactive = no such curve, though single readings can be large or run the other way. No potency is given beside an inconclusive call; the fits are too rough.

What follows are compounds tested against Aldehyde dehydrogenase 1A1 (Homo sapiens) (UniProt P00352) (assay: qHTS Assay for Inhibitors of Aldehyde Dehydrogenase 1 (ALDH1A1)). Settings: Purified ALDH1A1, NADH fluorescence, propionaldehyde substrate; series mostly up to 75.3 µM.
Potency is the fitted concentration of half-maximal effect; tags give direction and shape of the fitted curve.
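Throughout, for activity, negative = inhibition: plate controls were no enzyme wells and a reference inhibitor.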

UniProt P00352, sequence (P00352 whole entry, looked up): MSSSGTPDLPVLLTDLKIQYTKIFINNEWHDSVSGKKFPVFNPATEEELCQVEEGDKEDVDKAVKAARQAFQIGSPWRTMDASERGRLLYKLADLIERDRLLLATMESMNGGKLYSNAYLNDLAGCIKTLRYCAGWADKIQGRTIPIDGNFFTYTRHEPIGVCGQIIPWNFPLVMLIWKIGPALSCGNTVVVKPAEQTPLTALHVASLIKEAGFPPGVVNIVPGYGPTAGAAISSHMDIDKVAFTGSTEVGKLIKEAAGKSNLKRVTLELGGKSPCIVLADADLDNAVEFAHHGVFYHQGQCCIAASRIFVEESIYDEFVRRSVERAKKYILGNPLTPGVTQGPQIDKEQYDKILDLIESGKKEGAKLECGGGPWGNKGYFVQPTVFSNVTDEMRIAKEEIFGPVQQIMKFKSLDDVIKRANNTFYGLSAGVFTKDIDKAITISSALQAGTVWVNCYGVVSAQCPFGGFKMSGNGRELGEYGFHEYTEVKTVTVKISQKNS

Structure (SMILES)	Potency	activity, negative = inhibition
C=CCc1ccc(O)c(-c2cc(CC=C)ccc2O)c1	inconclusive [inhibitor, single point]	–
CCn1c(N)c(C(=O)NCCOC)sc1=S	active: 25.1 µM	–
O=C(Nc1ccc(S(=O)(=O)Nc2ncccn2)cc1)c1cnc(Cl)c(Cl)c1	inactive	–
c1ccc(CN2CC[C@@H](CNc3ncnc4ccccc34)C2)cc1	–	inactive: 8.65% [at 13.5 µM]
Cc1ccc(CN2CC(C(=O)Nc3ccc(F)c([N+](=O)[O-])c3)CC2=O)cc1 (stereo unspecified)	inconclusive [inhibitor, single point]	–
COc1ccccc1NC(=S)NC(NC(=O)c1ccco1)C(Cl)(Cl)Cl (stereo unspecified)	active: 14.1 µM	–
COC(=O)C(C)N1C(=O)S/C(=C/c2cc(C)n(C(C)C)c2C)C1=O (stereo unspecified)	inconclusive [inhibitor, single point]	–
COc1cc(C(=O)NCCOc2ccccc2)c(Br)c(OC)c1OC	inconclusive [inhibitor, single point]	–
CC(=O)c1cnc2cc(-c3ccc(C)cc3)nn2c1C	inconclusive [inhibitor, single point]	–
CC(C)c1onc(C(=O)Nc2cccnc2Cl)c1[N+](=O)[O-]	inconclusive [inhibitor, single point]	–
CN1CCN(C(=S)Nc2cc(S(=O)(=O)N3CCOCC3)ccc2Cl)CC1	inconclusive [inhibitor, single point]	–
CN1CCN(CCCc2c3c(cc4c2CCC4)CCC3)CC1	inactive	–
Cc1cccc(C)c1OCC(O)CNC(C)C (stereo unspecified)	inactive	–
COc1ccc(Nc2nc(-c3c(C)nc4ncccn34)cs2)cc1	inconclusive [inhibitor, single point]	–
CCN(CC)Cc1c(O)ccc2c(=O)c(Oc3ccccc3OC)coc12	inconclusive [inhibitor, partial curve]	–
CCOC(=O)c1ccc(-n2c(N)c(C(=O)NCc3ccco3)sc2=S)cc1	active: 17.8 µM	–
O=c1c(-c2ccc(F)cc2)nc2cnc(N3CCOCC3)nc2n1-c1ccccc1	inconclusive [inhibitor, partial curve]	–
CCc1ccc(C(=O)NNC(=S)Nc2ccc(S(N)(=O)=O)cc2)s1	inconclusive [inhibitor, single point]	–
O=C(C1=C(Nc2ccccc2)c2ccccc2S(=O)(=O)N1)c1ccccc1	inconclusive [inhibitor, partial curve]	–
O=C(O)c1ccc(-n2[nH]c3c(c2=O)CCCC3)cc1	inconclusive [inhibitor, single point]	–
CC(c1ccc(F)cc1)n1c(-c2ccc3ccccc3n2)n[nH]c1=S (stereo unspecified)	inconclusive [inhibitor, single point]	–
O=C1CCCCCCC1Sc1ccccc1[N+](=O)[O-] (stereo unspecified)	inconclusive [inhibitor, single point]	–
CC1=NCCN1S(=O)(=O)c1ccc(Br)c(C)c1	inconclusive [inhibitor, partial curve]	–
COc1ccc(C2C(C(=O)N3CCCCC3)c3ccccc3C(=O)N2C)cc1 (stereo unspecified)	active: 14.1 µM	–
N#Cc1c(-c2ccc(Cl)cc2)ccn2nc(C3CCCCC3)nc12	inconclusive [inhibitor, partial curve]	–
COc1cc(/C=C(\C#N)c2nc3ccccc3[nH]2)c([N+](=O)[O-])cc1OCc1ccccc1	active: 0.562 µM	–

Structure (SMILES)	Potency	activity, negative = inhibition
COC(=O)C1OC(=O)C2O[C@@]23[C@]2(C)C(OC(C)=O)CC4C(C)(C)C(=O)CC[C@]4(C)C2CC[C@@]13C (stereo partly specified)	inactive	–
O=C(Nc1cccc(F)c1)N1CCC2(CC1)CCN(C(=O)c1ccco1)CC2	inactive	–
CCOC(=O)c1ccc2nc3c(cc2c1)CCS3	inconclusive [inhibitor, single point]	–
Nc1nc(SCC(=O)Nc2cccnc2Cl)n[nH]1	inactive	–
Cc1cn([C@H]2C[C@H](N=[N+]=[N-])[C@@H](CO)O2)c(=O)[nH]c1=O	inactive	–
O=C(CS(=O)(=O)c1ccccc1)c1ccc2c(c1)OCCO2	inconclusive [inhibitor, partial curve]	–
CCCCCCCCS(=O)c1sc2nc(C)cc(C)c2c1N (stereo unspecified)	inconclusive [inhibitor, partial curve]	–
Cc1ccc(Nc2nc(-c3sc(NC(=O)c4cccc(Cl)c4)nc3C)cs2)cc1	active: 15.8 µM	–
COC(=O)[C@@H](N)CS	active: 3.16 µM	–
CC1CC(C)CN(CCOc2ccc(Cl)cc2Cl)C1 (stereo unspecified)	inactive	–
CN(CC(=O)Nc1ccc(SC(F)F)cc1)C1CCCCC1	inconclusive [inhibitor, single point]	–
CC(=O)c1cccc(NC(=O)c2ccc(-c3ccccc3[N+](=O)[O-])o2)c1	inconclusive [inhibitor, partial curve]	–
Cc1c(OCc2ccccc2)cccc1OCc1ccccc1	inactive	–
Cn1cc(SCC(=O)Nc2nc3ccccc3s2)c2ccccc21	inactive	–
C/C(=N\Nc1cccc(Cl)c1)c1ccc(-n2ccnc2)cc1	inconclusive [inhibitor, single point]	–
Cc1cc(C)c2c(n1)SCC(=O)N2CC(=O)NCCC1=CCCCC1	inconclusive [inhibitor, single point]	–
COc1ccccc1CNC(=O)c1ccc(CNc2c(N3CCCC3)c(=O)c2=O)cc1	inactive	–
O=C(CSc1ncnc2sccc12)Nc1ccccc1	inconclusive [inhibitor, single point]	–
N#CCCN(Cc1cccnc1)C(=S)NC(=O)c1ccco1	active: 11.2 µM	–
CCCc1nc2sc3c(c2c(=O)n1N)CCC3	inconclusive [inhibitor, single point]	–
Cc1cc(C2=NNC(=NCCc3ccccc3)SC2)c(C)n1CC1CCCO1 (stereo unspecified)	inconclusive [inhibitor, partial curve]	–
O=C(/C=C/c1ccc(-c2ccccc2[N+](=O)[O-])o1)c1ccc(F)cc1	inactive	–
CC(C)N1CCNCC1	inactive	–
Cc1ccccc1Nc1nc(N)nc(CSc2ccc(F)cc2)n1	inactive	–
Cc1nc(SCC(=O)c2ccc(F)cc2)n[nH]1	active: 4.47 µM	–
CN1CCN(C(=O)c2cc3c(ccc4ccccc43)oc2=O)CC1	inconclusive [inhibitor, partial curve]	–

Structure (SMILES)	Potency	activity, negative = inhibition
CCOC(=O)N1CCC(Nc2nc3ccccc3n3nnnc23)CC1	inconclusive [inhibitor, single point]	–
O=C(N/N=C/c1cccc([N+](=O)[O-])c1)c1ccc2nc[nH]c2c1	active: 11.2 µM	–
COc1ccc2oc(=O)c(-c3nc4ccccc4o3)cc2c1	inconclusive [inhibitor, partial curve]	–
CCOC(=O)c1sc(NC(=O)CSc2nc3c(c(=O)n2-c2ccc(F)cc2)SCC3)c(C(=O)OCC)c1C	inactive	–
O=C1N=C2SCCN2/C1=C\c1c(Cl)cccc1Cl	inactive	–
COCCn1c(=S)[nH]c2cc(C(=O)NCC3CCCO3)ccc2c1=O (stereo unspecified)	active: 15.8 µM	–
CCOC(=O)N1CCN(C(=O)c2ccc3c(=O)n(Cc4ccc(Cl)cc4)c(=S)[nH]c3c2)CC1	active: 10 µM	–
CC(=O)c1cc(N2CCC(C(=O)O)CC2)ccc1[N+](=O)[O-]	inactive	–
O=C(Nc1ccc2ccccc2c1)[C@H]1C[C@@H]1[C@H](NP(=O)(c1ccccc1)c1ccccc1)c1ccccc1	inactive	–
COc1ccccc1NC(=O)C1C2C=CC(O2)C1C(=O)O (stereo unspecified)	inconclusive [inhibitor, single point]	–
CN(CC(=O)Nc1ccc(S(=O)(=O)N2CCCC2)cc1)CC(=O)Nc1ccc(F)c(F)c1F	inconclusive [inhibitor, partial curve]	–
COc1ccc2cc(C(=O)NCc3ccccc3)c(=Nc3ccc(C(=O)O)cc3)oc2c1	inconclusive [inhibitor, single point]	–
O=C(OCc1ccc(F)cc1Cl)c1ccccn1	inconclusive [inhibitor, single point]	–
NNc1nc(N)c2c(n1)-c1ccccc1CC21CCCC1	inconclusive [inhibitor, single point]	–
COc1ccc(NC(=O)CSc2nnc(Cc3cccn3C)n2-c2ccc(F)cc2)cc1OC	active: 25.1 µM	–
COc1cccc2cc(C(=O)NC(C)C3CCCO3)c(=O)oc12 (stereo unspecified)	inconclusive [inhibitor, partial curve]	–
O=C(/C(=C/O)N=Nc1ccccc1Cl)c1ccccc1	active: 7.94 µM	–
CCOC(=O)N1CCC(N2Cc3cccc(C(=O)Nc4cc(F)ccc4F)c3C2=O)CC1	inconclusive [inhibitor, single point]	–
COc1ccc(NC(=O)CCSc2ccc(C)cc2)cc1	inconclusive [inhibitor, single point]	–
COc1cc(CNC(C)c2ccccc2)cc(Cl)c1OCC(=O)Nc1ccccc1 (stereo unspecified)	inconclusive [inhibitor, single point]	–
O=C(NCc1cccs1)C1CC(=O)N(c2ccc(F)cc2)C1 (stereo unspecified)	inactive	–
O=C(CSc1ccccn1)NC1CCCC1	inconclusive [inhibitor, single point]	–
CC(=O)[C@@H]1[C@@H]2C(=O)N(Cc3ccccc3)C(=O)[C@@H]2C2c3ccccc3C=CN21 (stereo partly specified)	active: 20 µM	–
COC(=O)c1cc(C(=O)NCCCN2CCOCC2)cc([N+](=O)[O-])c1	inactive	–
